Out of some 310,000 compounds screened, about 2,200 (0.71%) showed an effect of 50% or more. Effects have a minus sign here. The list shows a part of the results.
target: human ether-à-go-go-related gene (hERG) potassium channel (human, UniProt Q12809); experiment: primary screen, population patch clamp on CHO cells stably expressing hERG
Sequence (Q12809 whole entry, looked up): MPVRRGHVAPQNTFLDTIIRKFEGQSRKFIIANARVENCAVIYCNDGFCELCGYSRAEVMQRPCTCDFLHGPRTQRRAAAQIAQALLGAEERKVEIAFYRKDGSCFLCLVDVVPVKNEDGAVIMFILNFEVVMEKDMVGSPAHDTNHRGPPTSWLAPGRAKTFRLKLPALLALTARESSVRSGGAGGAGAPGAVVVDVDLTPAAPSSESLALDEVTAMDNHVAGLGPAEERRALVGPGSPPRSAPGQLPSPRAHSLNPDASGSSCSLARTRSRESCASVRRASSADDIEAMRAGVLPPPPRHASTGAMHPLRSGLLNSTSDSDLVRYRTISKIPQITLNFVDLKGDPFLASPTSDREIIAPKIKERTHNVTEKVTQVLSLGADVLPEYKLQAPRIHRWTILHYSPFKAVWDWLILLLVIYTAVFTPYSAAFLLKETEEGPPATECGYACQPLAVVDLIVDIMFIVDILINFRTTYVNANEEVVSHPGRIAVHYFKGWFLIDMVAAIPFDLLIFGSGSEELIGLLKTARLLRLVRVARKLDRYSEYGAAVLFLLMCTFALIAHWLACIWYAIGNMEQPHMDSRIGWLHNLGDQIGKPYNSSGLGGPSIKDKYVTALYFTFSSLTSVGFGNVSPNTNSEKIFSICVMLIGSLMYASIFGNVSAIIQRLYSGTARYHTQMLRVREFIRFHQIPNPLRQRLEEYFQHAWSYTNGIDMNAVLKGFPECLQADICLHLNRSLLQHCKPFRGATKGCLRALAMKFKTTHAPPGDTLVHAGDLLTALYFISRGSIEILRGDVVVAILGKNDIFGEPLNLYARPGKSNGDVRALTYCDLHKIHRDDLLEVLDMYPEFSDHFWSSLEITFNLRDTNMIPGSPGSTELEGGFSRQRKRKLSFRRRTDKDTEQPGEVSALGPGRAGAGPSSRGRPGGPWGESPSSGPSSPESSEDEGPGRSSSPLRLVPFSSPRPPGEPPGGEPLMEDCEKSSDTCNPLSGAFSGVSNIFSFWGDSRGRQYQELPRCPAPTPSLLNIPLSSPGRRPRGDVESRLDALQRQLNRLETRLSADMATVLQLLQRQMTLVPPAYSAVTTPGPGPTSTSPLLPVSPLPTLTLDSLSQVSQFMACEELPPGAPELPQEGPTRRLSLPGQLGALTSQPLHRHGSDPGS

Going from `COC(=O)c1cc(S(=O)(=O)N2CCN(c3ccc(F)cc3)CC2)c[nH]1` to `O=C(NCC(c1ccco1)N1CCN(c2ccc(F)cc2)CC1)OCc1ccccc1` (stereo not shown), the “hERG current change (%, negative = inhibition) at 1uM” value falls from 29.8% to 8.32%.

Going from `O=C(CN1C(=O)CSC1=O)N1CCc2ccccc2C1` to `CCC(C(=O)N1CCc2ccccc2C1)n1nc(C)n2c(cc3occc32)c1=O` (stereo not shown), the “hERG current change (%, negative = inhibition) at 1uM” value falls from 9.82% to -0.0213%.

First: COc1cccc(-n2c(SCC(N)=O)nnc2-c2ccncc2)c1
Second: COc1ccc(-n2c(C)cc(/C=N/Nc3nnc(C)n3N)c2C)cc1.Cl
The “hERG current change (%, negative = inhibition) at 1uM” value of the first is lower: 14.3% for the first, 18.8% for the second.

Going from `CC1(C)CC(=O)C=C(Nc2ccccc2O)C1` to `O=C(Cc1ccc(Cl)cc1)NC(=S)Nc1ccccc1O`, the “hERG current change (%, negative = inhibition) at 1uM” value falls from 16.7% to 13.4%.

First: CC1CC(C)CN(c2nc3c(c(=O)n(C)c(=O)n3C)n2CCSc2ncccn2)C1 (stereo not shown)
Second: O=c1c2ccccc2nc(N2CCN(c3ccccc3)CC2)n1Cc1ccccc1
The “hERG current change (%, negative = inhibition) at 1uM” value of the first is lower: -2.55% for the first, 5.54% for the second.

Compared with `S=C(Nc1ccccc1)N1CCN(c2ccccn2)CC1`, `CC(=O)N1CCN(c2ccccc2NC(=O)c2cccc3c(Cl)cccc23)CC1` is lower in “hERG current change (%, negative = inhibition) at 1uM” value: 12.8% for the first, 9.13% for the second.

First: O=Cc1cccc(OCc2cccc3ccccc23)c1
Second: COc1ccccc1CNC(=O)c1cccc(S(=O)(=O)N(C)c2ccccc2)c1
The “hERG current change (%, negative = inhibition) at 1uM” value of the first is higher: 10.6% for the first, -1.21% for the second.

Going from `COc1ccc(N(C(=O)Nc2ccc(Cl)cc2)C2=NCCC2)cc1` to `COc1ccc(C(=O)NC2CCN(C(=S)Nc3ccc(C)cc3)CC2)cc1`, the “hERG current change (%, negative = inhibition) at 1uM” value rises from 10.7% to 17.6%.

First: O=C(O)CN=C(NS(=O)(=O)c1ccc(Cl)cc1)c1ccccc1
Second: CCOc1ccc(NS(=O)(=O)c2ccc(NC(=O)c3ccccc3C(=O)O)cc2)cc1
The “hERG current change (%, negative = inhibition) at 1uM” value of the first is lower: 2.51% for the first, 9.36% for the second.

Going from `CCOc1cccc(/C=C(\C#N)C(=O)NC2CC2)c1` to `CCOC(=O)N1CCN(C(=O)COc2ccc(S(=O)(=O)NC(C)C)cc2)CC1`, the “hERG current change (%, negative = inhibition) at 1uM” value rises from 8.33% to 9.95%.

First: C=C1CCC[C@]2(C)C[C@H]3OC(=O)C(CN4CCCCC4CO)[C@H]3CC12 (stereo partly shown)
Second: Cl.O=C(NCCN1CCCC1)C1COc2ccccc2O1 (stereo not shown)
The “hERG current change (%, negative = inhibition) at 1uM” value of the first is lower: 12% for the first, 20.6% for the second.

Going from `O=C(O)CC12CC3CC(C1)CC(n1ncc(NCc4ccc(F)cc4Cl)c(Cl)c1=O)(C3)C2` to `O=C(CN1CC(c2ccccc2)CC1=O)NCc1ccc(F)cc1` (stereo not shown), the “hERG current change (%, negative = inhibition) at 1uM” value falls from 4.72% to 2.44%.

Compared with `CCC(CC)CN1C(N(C)C)=NC[C@@H]1CC(C)C`, `CC(C)Nc1nc(NC(C)C)nc(N(C)C(N)=O)n1` is lower in “hERG current change (%, negative = inhibition) at 1uM” value: 7.66% for the first, 7.45% for the second.

Compared with `COc1ccc(C(c2sc3nc(C)nn3c2O)N2CCC(O)CC2)cc1OC` (stereo not shown), `COc1cc(OC)cc(-c2c(-c3cccs3)c3cc(-c4ccc(OC)c(OC)c4)ccc3n2C)c1` is lower in “hERG current change (%, negative = inhibition) at 1uM” value: 18% for the first, 15.8% for the second.

First: O=[N+]([O-])c1ccc(N2CCCCC2)cn1
Second: O=C(c1cccc(-c2nnc(-c3ccccc3)o2)c1)N1CCCCCC1
The “hERG current change (%, negative = inhibition) at 1uM” value of the first is higher: 13.9% for the first, -6.98% for the second.

Compared with `Cc1ccc(CC(=O)CCc2ccccc2)cc1`, `CCc1ccc(N(CC)C(=O)c2cn(C)c(=O)c3ccccc23)cc1` is lower in “hERG current change (%, negative = inhibition) at 1uM” value: 16.9% for the first, 5.72% for the second.

First: CSCc1ccc(C(=O)N2CCC(N3CCC(C(=O)NC(C)C)CC3)CC2)o1
Second: CCOC(=O)C1CCCN(C(=O)c2cc(Cl)ccc2NC(=O)C2=C(C)OCCS2)C1 (stereo not shown)
The “hERG current change (%, negative = inhibition) at 1uM” value of the first is lower: 10.3% for the first, 14.2% for the second.

First: Cc1nonc1OCCn1nnnc1N
Second: Cc1ccc(OCCN2CCOCC2)cc1C
The “hERG current change (%, negative = inhibition) at 1uM” value of the first is higher: 18.9% for the first, 12.7% for the second.

Compared with `CC1=NNC(=O)C1CC(=O)N/N=C/C=C/c1ccccc1` (stereo not shown), `Cc1ccc(C)n1NC(=O)c1ccccc1[N+](=O)[O-]` is lower in “hERG current change (%, negative = inhibition) at 1uM” value: 23.1% for the first, 15.9% for the second.

First: Cc1ccccc1C1C(C#N)=C2N=C(N)c3c(sc4c3CCCCC4)N2C2=C1C(=O)CC(C)(C)C2 (stereo not shown)
Second: Cc1cc(C)nc(-n2ncc3c2CC(c2ccc(F)cc2)CC3=O)n1 (stereo not shown)
The “hERG current change (%, negative = inhibition) at 1uM” value of the first is lower: 11.7% for the first, 12.7% for the second.

Going from `C=CCSc1nnc(NC(=O)C2CSC3(C)CCC(=O)N23)s1` (stereo not shown) to `CCC(Sc1nccn1C)C(=O)Nc1ccc(Cl)cn1` (stereo not shown), the “hERG current change (%, negative = inhibition) at 1uM” value rises from 1.66% to 5.95%.

Compared with `CCOC(=O)c1ccc(NC(=O)CCSCCc2ccccn2)cc1`, `CCCCCCCOc1ccc(OC(=O)c2ccncc2)cc1` is higher in “hERG current change (%, negative = inhibition) at 1uM” value: 12% for the first, 16.3% for the second.

Compared with `CC(C)OC(=O)C1C2C=CC3(CN(C(C)c4ccc(Br)cc4)C(=O)C13)O2` (stereo not shown), `Cc1cc(OCC(=O)Nc2cnn(CCCC(=O)O)c2)ccc1[N+](=O)[O-]` is higher in “hERG current change (%, negative = inhibition) at 1uM” value: 7.23% for the first, 17.2% for the second.

Source: article PMC4336329 (PLoS ONE, 2015)
